# ± gives the standard deviation of the averaged measurements. In all, about 33,000 sequences were measured (“E-score (dimensionless, -0.5 to 0.5)”: median about -0.049, highest 2% from about 0.37 on). The list shows a part of the results.
# System: T1, PmTbr T-box DNA-binding domain (GST fusion)
# T1 sequence: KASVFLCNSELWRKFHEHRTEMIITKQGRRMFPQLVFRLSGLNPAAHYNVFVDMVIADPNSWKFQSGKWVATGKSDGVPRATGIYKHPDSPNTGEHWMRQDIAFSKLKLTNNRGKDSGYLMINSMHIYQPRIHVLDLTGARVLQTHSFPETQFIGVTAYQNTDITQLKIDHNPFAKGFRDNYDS
# Experiment: PBM E-score of 8-mer (E-score (dimensionless, -0.5 to 0.5)); Tbr is Tbrain of the sea star Patiria miniata (Pm) or the sea urchin Strongylocentrotus purpuratus (Sp); higher = stronger binding preference; most listed sequences are background and not binding sites
# Settings: the construct has about 5 more residues each side
# Outline: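 Using the Universal PBM Analysis Suite, every ungapped 8-mer received an enrichment E-score averaged over duplicate arrays. Probe intensities came from double-stranded Universal Agilent oligonucleotide arrays incubated with 200 nM GST-fused Tbr T-box DNA-binding domain in PBS (pH 7.5). That protein was expressed in BL21 E. coli at 20 °C and purified by glutathione affinity chromatography.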
row,Sequence,PBM E-score of 8-mer
1,ATGAGGGC,-0.159 ± 0.035
2,CGGTAAGC,-0.0776 ± 0.021
3,AGCTTAAA,-0.236 ± 0.079
4,AACCTATG,-0.141 ± 0.019
5,GTCGCGAC,0.385 ± 0.0054
6,CCGCAAGC,-0.0781 ± 0.097
7,CACGTGCA,0.219 ± 0.023
8,CTTAGCAA,0.0581 ± 0.031
9,ACTGATTC,-0.25 ± 0.019
10,GAAATTCA,-0.00077 ± 0.00047
11,GACATAAC,0.0267 ± 0.016
12,CACAGAGC,-0.165 ± 0.047
13,AGATTTTG,-0.0202 ± 0.02
14,AGTGTAGG,0.033 ± 0.0069
15,ACTCAAGT,-0.000135 ± 0.051
16,GGGCTACA,-0.199 ± 0.036
17,TGCGGACA,0.13 ± 0.0038
18,GCGCTTAC,0.178 ± 0.0096
19,AACAACAT,0.123 ± 0.0088
20,CACCCGCA,0.261 ± 0.031
21,CCTTAATC,0.0639 ± 0.029
22,CGCTGCTC,-0.0866 ± 0.022
23,AAATTCGC,0.255 ± 0.029
24,CCGACAGG,0.121 ± 0.053
25,ATCGCGTG,0.246 ± 0.017

row,Sequence,PBM E-score of 8-mer
1,CAATACAG,-0.1 ± 0.057
2,CTACAATC,0.129 ± 0.022
3,CTTTGGAA,-0.166 ± 0.045
4,CGGATATA,-0.213 ± 0.0022
5,CAACGCCC,0.2112 ± 0.00054
6,CGGCTTGA,-0.00918 ± 0.014
7,TAAACAAA,0.038 ± 0.014
8,CCAGCACC,0.264 ± 0.035
9,CCTTACCA,0.0951 ± 0.089
10,AATGTTAT,-0.00229 ± 0.038
11,ACCACCCC,0.191 ± 0.072
12,ACTTAAAG,0.0623 ± 0.041
13,CTGTTAAC,0.281 ± 0.055
14,CACCTCTA,0.44129 ± 0.00038
15,CGATCAGC,0.0482 ± 0.0031
16,AAGGTTAG,-0.0617 ± 0.054
17,GGCCAGTA,-0.0613 ± 0.025
18,AGATCCCG,-0.0625 ± 0.084
19,CGTATTTA,-0.00831 ± 0.11
20,CAGGGCCC,-0.299 ± 0.032
21,ACTCTCAA,0.00381 ± 0.03
22,AGGCTACA,-0.0503 ± 0.024
23,GGCCTCCC,-0.181 ± 0.008
24,ACTCCCAT,-0.0486 ± 0.024
25,CTTCTGGA,-0.2303 ± 0.0021

row,Sequence,PBM E-score of 8-mer
1,AGAATTCA,-0.0891 ± 0.075
2,ACTGCAGT,0.185 ± 0.034
3,TGCTTCCA,-0.124 ± 0.098
4,AGGGCCAG,-0.185 ± 0.033
5,ACACATTG,0.39 ± 0.017
6,ACGAACAT,-0.224 ± 0.011
7,CGCTGTAA,0.0407 ± 0.019
8,ATTTTCGG,-0.00858 ± 0.028
9,ATTGACTG,-0.0222 ± 0.017
10,TTATACAA,-0.0496 ± 0.049
11,CCGGGACG,-0.274 ± 0.09
12,CATCTCCA,0.128 ± 0.0027
13,GGGATTAA,-0.159 ± 0.051
14,ATAAGGAA,-0.166 ± 0.079
15,GTCATCTA,-0.0416 ± 0.04
16,GACATGCC,-0.0764 ± 0.03
17,AGAAATCT,-0.161 ± 0.079
18,GTGTTGCA,0.30766 ± 0.00019
19,AGCCCTAC,-0.306 ± 0.038
20,CAATAGCG,0.118 ± 0.13
21,CTATTAAC,0.148 ± 0.04
22,TGGGAGAA,-0.0759 ± 0.003
23,ACATCCGC,-0.0577 ± 0.029
24,ATCAGCCG,-0.118 ± 0.0032
25,ACTCCCAG,0.0574 ± 0.15

row,Sequence,PBM E-score of 8-mer
1,CATCCGAC,-0.1077 ± 0.00047
2,ACAGGATG,-0.0297 ± 0.003
3,ACAGGAGA,-0.2114 ± 0.001
4,CTCCGTGC,-0.161 ± 0.079
5,ACAGGGAC,-0.153 ± 0.017
6,AGATAGAA,-0.122 ± 0.05
7,ATCAACAG,0.0457 ± 0.077
8,TAAACCCA,-0.0858 ± 0.0046
9,CTTATCGA,0.149 ± 0.0083
10,AGCTCCAT,-0.286 ± 0.056
11,GGTATATA,-0.0526 ± 0.016
12,ACACTATA,0.269 ± 0.0039
13,CATGAGGC,-0.146 ± 0.074
14,GTCTATAA,-0.11 ± 0.017
15,AAGATAGG,-0.213 ± 0.029
16,ATTGGGGC,-0.0884 ± 0.083
17,AAGGCCCG,-0.267 ± 0.075
18,AGCATATG,-0.0737 ± 0.041
19,ACAAATCG,0.175 ± 0.0097
20,GCGATGCC,0.0631 ± 0.0054
21,GTGAGCAA,0.23225 ± 4.2e-05
22,CCCCTCAC,0.189 ± 0.049
23,CCTAGGAC,0.141 ± 0.039
24,GAGTCAGC,-0.147 ± 0.016
25,AGACATGA,0.173 ± 0.021

row,Sequence,PBM E-score of 8-mer
1,GGAACTTA,-0.154 ± 0.032
2,GCTTCTGA,-0.015 ± 0.033
3,ATTCACAC,0.4763 ± 0.0034
4,GCTACGCA,-0.0652 ± 0.035
5,AAGAGCGT,-0.119 ± 0.04
6,AAGGAAGT,0.0236 ± 0.043
7,ATCTTGTG,0.00868 ± 0.075
8,CCCCGGCC,-0.0747 ± 0.06
9,CATAACCG,0.0089 ± 0.018
10,CGCCTCGA,0.151 ± 0.069
11,ATCCTCAG,-0.0729 ± 0.034
12,AACAAAGC,0.0116 ± 0.00023
13,AGTTTCAT,-0.23 ± 0.038
14,ACGCAAAA,0.167 ± 0.0045
15,CCCCTACA,-0.0297 ± 0.0042
16,GCAGCATA,-0.0274 ± 0.017
17,CCACCGCA,-0.0384 ± 0.031
18,TACATTCA,-0.0602 ± 0.15
19,CCTTCCGA,-0.048 ± 0.027
20,GGTTTTAC,-0.118 ± 0.0048
21,TGACGACA,0.264 ± 0.034
22,CCCGCGCA,-0.0204 ± 0.085
23,TACAGACA,0.0602 ± 0.028
24,GCACTGGC,-0.145 ± 0.12
25,AACGGTAG,-0.0635 ± 0.0099

row,Sequence,PBM E-score of 8-mer
1,ATGCTTAC,-0.113 ± 0.11
2,GATCGTGC,0.0937 ± 0.057
3,CTTCGAAG,0.0912 ± 0.026
4,GAAAAGCA,-0.0323 ± 0.00098
5,CACCAGAC,0.113 ± 0.011
6,CCGCCGCC,-0.0738 ± 0.1
7,GCAAGCAA,0.0011 ± 0.053
8,AATTGGAG,-0.116 ± 0.0036
9,CAAATTTA,-0.0401 ± 0.12
10,CATGCGAC,0.0036 ± 0.057
11,ACTCGTCC,-0.0232 ± 0.021
12,GAGCACAA,-0.133 ± 0.02
13,GCGCGCGA,0.2759 ± 0.00057
14,ACAGATGT,0.153 ± 0.02
15,ACTTGGAG,-0.00346 ± 0.017
16,AGTCGACT,0.0957 ± 0.0034
17,AGGTTTGC,-0.169 ± 0.029
18,ACTATGGC,0.0668 ± 0.019
19,GGTGCGCA,0.173 ± 0.045
20,ATTCGACG,-0.0492 ± 0.026
21,ATACCCAC,-0.22 ± 0.029
22,AGTGTGGA,0.354 ± 0.0036
23,TATTCAAA,-0.319 ± 0.073
24,GACGAAAC,0.0247 ± 0.027
25,ACATTCCC,-0.176 ± 0.043

row,Sequence,PBM E-score of 8-mer
1,GCTTCACC,0.0106 ± 0.012
2,CTCATCAG,-0.208 ± 0.023
3,ATGTTTAG,-0.22 ± 0.022
4,TCTCCCAA,0.0238 ± 0.012
5,AGGACCGA,-0.0377 ± 0.051
6,CAGCGTGA,0.266 ± 0.0088
7,AGGATTTA,-0.163 ± 0.011
8,AGTGTCAT,0.387 ± 0.0042
9,AAGATAAA,-0.115 ± 0.086
10,AAGCGGTA,-0.0518 ± 0.051
11,ACGCGAGG,0.14 ± 0.017
12,CCTCTATC,-0.0172 ± 0.037
13,ATGACACC,0.463 ± 0.0098
14,ACTCCTAG,-0.0368 ± 0.041
15,GGGGCTGA,-0.1789 ± 0.00037
16,TCGGAACA,-0.0443 ± 0.0089
17,AATGGACG,-0.0703 ± 0.005
18,GAGCGTCC,-0.297 ± 0.038
19,AGAGTCGC,0.171 ± 0.022
20,AAGGGCCT,-0.248 ± 0.0044
21,AATGTTGG,-0.0727 ± 0.029
22,GAAACCGC,-0.0261 ± 0.018

# Source: the supplement of paper PMC4166925
